In all, about 110,000 compounds were measured (“z-score”: median about -0.1, highest 2% from about 2 on). The list shows a part of the results. The source made the active and inactive calls.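 Rule for the calls: active = z-score in the third read window above 3 or below -3; inactive = the rest.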
biological target: Metabotropic glutamate receptor 8 (Rattus norvegicus) (UniProt P70579); experiment: mGluR8 Gi/Go-coupled signaling modulation – cell-based, rat, thallium flux, HTS, primary screen (AID 488969); conditions: HEK293 rat mGluR8, GIRK (G protein-gated inwardly rectifying potassium channel) thallium flux, FluoZin2; at 10 µM; stronger effect = higher value; submaximal glutamate (EC20) added with thallium
UniProt P70579, sequence (P70579 whole entry, looked up): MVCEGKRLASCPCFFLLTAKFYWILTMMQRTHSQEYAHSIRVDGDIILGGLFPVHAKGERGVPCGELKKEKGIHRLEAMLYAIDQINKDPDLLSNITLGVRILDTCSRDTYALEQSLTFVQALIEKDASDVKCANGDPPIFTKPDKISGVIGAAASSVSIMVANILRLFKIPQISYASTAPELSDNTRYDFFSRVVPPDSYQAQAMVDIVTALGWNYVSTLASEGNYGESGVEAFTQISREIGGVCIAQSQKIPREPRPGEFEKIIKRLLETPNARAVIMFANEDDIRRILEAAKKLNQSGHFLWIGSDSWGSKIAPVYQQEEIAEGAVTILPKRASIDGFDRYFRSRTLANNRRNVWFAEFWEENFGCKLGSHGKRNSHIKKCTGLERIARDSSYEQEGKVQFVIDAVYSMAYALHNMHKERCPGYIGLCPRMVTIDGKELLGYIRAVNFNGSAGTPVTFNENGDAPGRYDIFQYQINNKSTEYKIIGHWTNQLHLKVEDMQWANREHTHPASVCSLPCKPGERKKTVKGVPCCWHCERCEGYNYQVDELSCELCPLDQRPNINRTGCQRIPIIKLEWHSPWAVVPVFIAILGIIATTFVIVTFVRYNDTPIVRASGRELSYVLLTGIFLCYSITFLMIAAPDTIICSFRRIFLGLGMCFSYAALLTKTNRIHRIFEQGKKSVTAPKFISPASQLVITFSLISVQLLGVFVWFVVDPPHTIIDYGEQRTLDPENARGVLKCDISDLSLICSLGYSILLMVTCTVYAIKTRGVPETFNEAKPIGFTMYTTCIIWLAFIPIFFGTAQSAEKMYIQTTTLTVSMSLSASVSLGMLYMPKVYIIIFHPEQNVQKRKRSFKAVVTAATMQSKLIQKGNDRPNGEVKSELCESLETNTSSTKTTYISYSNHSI

Structure (SMILES)	z-score
CCCn1nc2cc(C(=O)NCCc3ccc(C)cc3)ccc2c1OCC	2.73
Cn1c2ccccc2c2cc(C(=O)N3CCN(CCO)CC3)sc21	0.0169
COc1ccc(C(=O)n2c(-c3ccco3)nc3ccccc32)cc1	-1.07
Cc1ccc(N2C(=O)[C@@H]3[C@H](C2=O)C2c4ccccc4C=NN2[C@@H]3C(=O)c2ccc(Cl)cc2)cc1 (stereo partly drawn)	1.69
CC(NS(=O)(=O)c1ccc(Br)cc1)C(=O)NCCc1ccccc1 (stereo not drawn)	-0.457
CC1CN(Cc2nc3c(c(=O)n(C)c(=O)n3C)n2CCCc2ccccc2)CC(C)O1 (stereo not drawn)	-0.556
CC(C)(C)C1CCC(OC(=O)c2ccncc2)CC1 (stereo not drawn)	0.0808
N#Cc1ccc(C(c2nnnn2Cc2ccccc2)N2CCCC2)cc1 (stereo not drawn)	-0.0525
CCn1c(SCC(=O)Nc2ccc3c(c2)OCO3)nc2ccccc21	-0.218
CN(c1ccccc1C(=O)Nc1cccnc1)S(C)(=O)=O	0.0619
CCNc1nc(SCc2ccccc2)nc(N2CCOCC2)n1	-0.898
Nc1c(S(=O)(=O)c2cccs2)c2nc3ccccc3nc2n1Cc1ccccc1	-0.107
COC(=O)c1cc(CN2CCN(c3ccccc3C)CC2)ccc1O	0.326
Cn1c(=O)[nH]c2cc(Cl)cnc21	0.0453
CCOC(=O)C1CCN(C(=O)Cc2c(C(=O)O)[nH]c3ccccc23)CC1	0.174
CCCCNC(=O)n1c(SC)nc2ccccc21	-0.0061
CCOc1cc(S(=O)(=O)Nc2ccc(CC)cc2)ccc1Cl	0.0907
Cc1ccc2c(c1)N1C(=O)c3ccccc3C1C1=C(CC(C)(C)CC1=O)N2 (stereo not drawn)	-0.0445
C=CCn1c(-c2cccn(Cc3ccc(Cl)cc3)c2=O)n[nH]c1=S	0.776
CCCn1c(NCc2c[nH]c3ccccc23)nc2ccccc21	0.265
O=C(O)C1C2C=CC(C2)C1C(=O)NCCCn1ccnc1 (stereo not drawn)	-0.053
CCCc1cc(=O)n2[nH]c(-c3ccc(Br)cc3)cc2n1	active: 3.04

Structure (SMILES)	z-score
[O-][n+]1onc2c1CCc1nnc(-c3ccccc3)cc1-2	-0.0502
O=C(c1cc(-c2ccccc2)nc2ccccc12)N1CCc2ccccc2C1	-0.569
Cn1c(SCc2cccnc2)nnc1-c1c[nH]c2ccccc12	-0.112
O=C(CSc1ncnc2c(-c3ccc(Cl)cc3)nsc12)c1ccccc1	0.178
Cc1ccc(NC(=O)CSc2nc(O)c(Cc3ccccc3)c(=O)n2-c2ccccc2)cc1	-0.47
CCc1ccc2c(Cl)c(C(=O)N/N=C/c3c[nH]c4ccccc34)sc2c1	-0.00757
O=c1nc2ccccc2c(NS(=O)(=O)c2ccc(Cl)cc2)n1-c1ccccc1	-0.325
Cc1ccccc1S(=O)(=O)Cc1ccc(C(=O)NCc2cccs2)o1	0.133
CCCCCN(C(=O)CN(C)Cc1ccc(OC)cc1OC)c1c(N)n(CCCC)c(=O)[nH]c1=O	0.0701
Cc1nc(NC(=S)NC(=O)c2cccs2)sc1C(=O)N(C)C	-0.329
CN1C(=O)C2(c3ccccc31)C1CCCC=C1C(C#N)=C(N)C2(C#N)C#N (stereo not drawn)	-0.329
CCc1cccc2c(C(=O)COC(=O)c3c(C)noc3C)c[nH]c12	0.137
Cc1ccc(C(=O)SC2=NCCS2)cc1	-0.731
Cc1ccccc1NC(=O)C1CCCN1/C=C/C(=O)C(F)(F)F (stereo not drawn)	-0.244
CC(C)(Oc1ccc(Cl)cc1)C(=O)Nc1ccncc1	-0.401
Cc1cc(Br)c(OCc2ccc(C(=O)N/N=C3\CC(=O)CC(C)(C)C3)cc2)c(Br)c1	-0.0552
Cc1ccc(-n2ncc3c(=O)[nH]c(SCC(=O)N4CCCCC4)nc32)cc1	-0.107
Cc1ccc(CN2CCN(CC(=O)NCCCN3CCN(c4ccc(F)cc4)CC3)C2=O)cc1	0.0736
CC(=O)NC(C)C12CC3CC(CC(CC(=O)O)(C3)C1)C2 (stereo not drawn)	-1
Cc1cc(C)nc(NC(=O)COc2cc(Cl)cc(Cl)c2)n1	-0.251
Cc1cc(C)c(NC(=S)N2CCCC2C(=O)O)c(C)c1 (stereo not drawn)	-0.128
O=C(CSc1ccc(-c2ccc(Cl)cc2)nn1)Nc1ccc2c(c1)OCCO2	-0.107

Structure (SMILES)	z-score
COc1ccc(N(C(=O)CCl)C(C(=O)NCCc2ccccc2)c2cccs2)cc1 (stereo not drawn)	-0.183
Cc1c(NC(=O)c2cc(=O)[nH]c3ccccc23)c(=O)n(-c2ccccc2)n1C	0.806
Cc1ccc2nc(C)cc(NCCO)c2c1	-1.17
N=C1C(c2nc3ccccc3[nH]2)=C(O)CN1c1ccc(CC(=O)O)cc1	0.524
COCCCN1C(=O)C(=O)/C(=C(/O)c2ccc3c(c2)CC(C)O3)C1c1cccnc1 (stereo not drawn)	-0.0792
O=C(COc1ccc([N+](=O)[O-])cc1)NN=C1CCCC1	0.0848
N=c1c2c3c(sc2ncn1CCN1CCOCC1)CCCC3	-1.13
O=C(O)C1CCCN1C(=O)Oc1ccccc1 (stereo not drawn)	-0.186
Cc1ccc(S(=O)(=O)CCC(=O)OCC(=O)c2ccc(C)c(C)c2)cc1	-0.412
CS(=O)(=O)N(CCc1ccccc1)CC(=O)N1CCCCC1	0.555
Cc1ccc(Nc2nc(CSc3nnc(-c4ccccc4)n3C)cs2)cc1	-0.569
COC(=O)c1[nH]c2ccc(Cl)cc2c1NC(=O)C1CC1	0.098
COc1cccc(OC)c1C(=O)Nc1ccc(CN2CCCCC2)cc1	-0.866
NC(=O)C1CCN(C(=O)COc2ccc3ccccc3c2)CC1	0.115
[N-]=[N+]=CC(=O)CCCN1C(=O)c2ccccc2C1=O	-0.111
CC(C)(C)C1CCC(OCC(O)CN2CCN(Cc3ccccc3)CC2)CC1 (stereo not drawn)	-0.106
CCc1ccc2c(c1)c(N=NC1=NC(=O)CS1)c(O)n2C	2.09
CCCOc1ccc(OC(=O)c2ccc(Br)o2)cc1	-0.103
CC(C)(C)c1ccc(C(=O)NNC(=O)c2ccccc2Br)cc1	-0.181
CCOC(=O)c1cnc2ccc(Cl)cc2c1N1CCN(C)CC1	-0.0256
CCOC(=O)C1=C(c2ccccc2)Nc2nc(C)nn2C1c1cccc(OC)c1OC (stereo not drawn)	0.00423
CCOC(=O)CSc1nnc(CNC(=O)Cc2ccccc2)n1C	-0.274

Structure (SMILES)	z-score
Nc1nc2n(n1)C(c1cccc(Cl)c1)CC(c1ccc(F)cc1)N2 (stereo not drawn)	0.421
Cc1ncc([N+](=O)[O-])n1CCOC(=O)c1cc(Cl)cc(Cl)c1N	-0.21
O=C(NCCc1ccccc1)C1CCN(S(=O)(=O)c2cccnc2)CC1	1.19
CCC1(C)Cc2nc3[nH]c(=S)n(-c4ccc(C)cc4)c(=O)c3cc2CO1 (stereo not drawn)	-0.162
CC(C)c1ccc(NC(=O)C2CC(=O)N=C(N)S2)cc1 (stereo not drawn)	0.25
Cc1ccc(-c2csc(N(C)C(=O)c3c(C)nn(-c4ccccc4)c3Cl)n2)cc1	-0.178
O=C(c1cn(-c2ccccc2)nc1-c1cccs1)N1CCN(c2ccccn2)CC1	-0.264
O=C(Nc1nc(-c2ccc(S(=O)(=O)N3CCCCCC3)cc2)cs1)c1ccccc1	-0.101
COC(=O)c1sccc1NC(=O)c1ccc(Cl)s1	-0.15
O=C(NC(=S)Nc1cccc(Cl)c1N1CCCCC1)c1ccco1	active: 5.38
Cc1nc2ccccc2n1CCc1nc2c3ccccc3nc(=S)n2[nH]1	-0.257
CCCCn1c(SCC(=O)N2CCOCC2)nnc1-c1ccoc1C	1.9
CCCCN(C(=O)c1cc2ccccc2o1)c1c(N)n(CCC)c(=O)[nH]c1=O	0.0353
Cc1ccc(N2CC(C(=O)N3CCCc4ccccc43)CC2=O)cc1 (stereo not drawn)	-0.407
C/C(=C/C(=O)N1CCN(C)CC1)C(=O)O	-0.0728
COC(=O)C1=C(O)/C(=C\c2ccc(CNC(=O)C(=O)Nc3ccc(C)c(C)c3)o2)N=C1C	-0.472
O=C(NNC(=O)c1cccc(S(=O)(=O)N2CCN(c3ccccc3)CC2)c1)c1ccc(Cl)cc1	-0.108
CCc1ccc(NC(=O)CSc2nnc(-c3cnccn3)n2Cc2ccco2)cc1	-0.0331
O=C(CSc1nnc(-c2ccncc2)n1CC1CCCO1)Nc1nccs1 (stereo not drawn)	-0.0829
O=S(=O)(Cc1ccccc1)N1CCCC(c2nc(-c3ccc(F)cc3)no2)C1 (stereo not drawn)	-0.449
COc1cc(OC)c(CN2CCCCCCC2)cc1Br	0.914
CC1(C)CC(=O)C=C(NCCN2CCN(C(=O)Nc3ccccc3)CC2)C1	-0.235

Structure (SMILES)	z-score
COc1cccc(/C=C/C(=C2/C(=O)N(c3ccccc3)N=C2C)c2ccc(C)cc2)c1OC	-0.536
COC(=O)C(NC(=O)c1ccccc1)(Nc1nccs1)C(F)(F)F (stereo not drawn)	0.0938
COc1ccc(CN(CC(=O)NCC2CCCO2)C(=O)CNS(=O)(=O)c2ccc(C)cc2)cc1 (stereo not drawn)	0.18
FC(F)(F)c1ccc(N2CCOCC2)c(NC2=NCCCCC2)c1	1.01
Cc1cccc(OCC(=O)Nc2ccc3c(c2)nc(CCN2CCN(C)CC2)n3C)c1	0.472
Cc1nc(S/C(=C/c2ccc(-c3cccc(Cl)c3)o2)C(=O)O)n[nH]1	-0.00935
CN1CCN(C(=O)c2ccc3c(c2)N(Cc2cccc(Cl)c2)C(=O)c2ccccc2S3=O)CC1 (stereo not drawn)	-0.604
O=c1nc(/C=C/c2ccc(-c3ccc(F)cc3)o2)cc(C(F)(F)F)[nH]1	0.167
C/C(=N\c1nc2ccccc2n1C)c1cc(Cl)ccc1O	-0.63
COc1ccccc1N1CCN(C(=O)CN(Cc2ccccc2)S(C)(=O)=O)CC1	0.36
COc1ccc(NC(=O)c2[nH]c(C)c(C(C)=O)c2C)cc1Cl	-0.773
O=C(Nc1cccc2c1CCCC2)C1CCN(c2nnnn2-c2ccccc2)CC1	-0.98
C(=N\n1cnnc1)/c1ccc2ncccc2c1	-0.0827
CCOC(=O)C(/C=C(\C#N)C(=O)OCC)=C(/N)N1CCN(c2c(C)cccc2C)CC1	-0.0493
O=C1CS/C(=N/N=C2C3CC4CC(C3)CC2C4)N1	-0.0871
O=C(COC(=O)C1CCN(S(=O)(=O)c2ccc3c(c2)OCCO3)CC1)Nc1cc(C(F)(F)F)ccc1Cl	-0.303
C=CCn1c(COc2ccccc2)nnc1SCC(=O)N/N=C/c1cc(Cl)ccc1O	-0.136
Cc1ccc(-n2nnnc2CSc2nnc(-c3ccc(O)cc3)o2)cc1	-0.0955
O=S1(=O)N=C(N2CCN(c3ccc(F)cc3)CC2)c2ccccc21	-0.175
Cn1cc(S(=O)(=O)N2CCN(c3cccc(C(F)(F)F)c3)CC2)c(=O)n(C)c1=O	-0.133

Source: PubChem BioAssay AID488969 (Vanderbilt High Throughput Screening Facility, 2010)
